Experimental data taken from PubChem BioAssay AID686978 (National Center for Advancing Translational Sciences (NCATS), 2013).
Where “and” joins values, the source holds several entries; their conditions need not be identical. Equal entries are not always repeated. In all, about 420,000 compounds went through this assay and about 64,000 (15%) were called active. Inconclusive means that the source gave no clear call. Such entries were picked first, then a sample of the others. Calls follow the shape of the dose curve; as a rule, active = well fitted inhibition curve with a large enough effect; inconclusive = small, poorly fitted or top-dose-only effect; inactive = flat fitted curve, though single readings scatter. A potency beside an inconclusive call is a rough fit, not a confirmed value.

Test: qHTS for Inhibitors of human tyrosyl-DNA phosphodiesterase 1 (TDP1): qHTS in cells in absence of CPT; also: nearly all actives have a fitted effect of over 55% in size
Settings: DT40 Tdp1-/- hTDP1 cells, no CPT, ATP luminescence, 48 h; activity change, negative = growth inhibition: at 46.2 µM (top of the series)
Outline: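 Chicken DT40 Tdp1-/- cells stably complemented with human TDP1 were seeded at 400 cells/well with DMSO in place of 20 nM camptothecin. After compound pinning, cells grew at least 48 hr at 37 °C; viability read by CellTiter-Glo luminescence.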
% is scaled to controls: 0 for no effect and ±100 for the full control effect; potency is read from the fitted curve at half-maximal effect; tags tell the direction and shape of the fitted curve.

| Compound | Potency | activity change, negative = growth inhibition |
| --- | --- | --- |
| Cn1c(-c2cccc([N+](=O)[O-])c2)cnc1NCc1cccc([N+](=O)[O-])c1 | inconclusive: 25.9 µM [inhibitor, single point] |  |
| CCOC(=O)C1CCCN(C(=O)c2ccc(CS(=O)(=O)Cc3ccccc3C)o2)C1 (stereo not given) | inconclusive: 16.4 µM [inhibitor, partial curve] |  |
| COc1ccc(C2=CC(=O)C[C@H](c3ccc(OC)cc3)C2)cc1 | inconclusive: 32.6 µM [inhibitor, single point] |  |
| COc1cc(NC(=O)COC(=O)c2[nH]c(C)c(C(C)=O)c2C)cc(OC)c1 | inconclusive: 25.9 µM [inhibitor, single point] |  |
| CCOc1ccc(-c2cc(-c3nc(-c4ccc(C)cc4)no3)[nH]n2)cc1 | inconclusive: 14.6 µM [inhibitor, single point] |  |
| C[C@@H]1COC(=O)[C@@H](CC(=O)OC(C)(C)C)C/C=C\C[C@H](CC(=O)NCCO)C(=O)N1 | inactive |  |
| CCC(=O)Nc1cc(-c2nnc(OC)c3ccccc23)ccc1N1CCOCC1 | inconclusive: 32.6 µM [inhibitor, single point] |  |
| O=C(COC(=O)Cc1n[nH]c(=O)c2ccccc12)Nc1cccc(C(F)(F)F)c1 | inactive |  |
| CCN1C(=O)c2ccccc2S(=O)(=O)c2ccc(C(=O)NCc3ccccc3Cl)cc21 | inconclusive: 25.9 µM [inhibitor, single point] |  |
| CCCn1c(C(O)c2ccc3c(c2)OCO3)nc2ccccc21 (stereo not given) | inconclusive: 18.4 µM [inhibitor, single point] |  |
| Cc1cc(-c2cccs2)c2c(n1)sc1c(=O)[nH]c(=O)[nH]c12 | inconclusive: 0.92 µM [inhibitor, full curve, poor fit] |  |
| CCn1c(SCC(=O)NC2(C#N)CCCCC2)nc2ccccc2c1=O | inactive |  |
| Cc1cc(NC(=O)CCC(=O)N(C(C(=O)NC(C)(C)C)c2ccccc2Cl)C(C)(C)C)no1 (stereo not given) | inactive |  |
| CCCOC(=O)c1ccc(-c2ccc(C=O)o2)cc1 | inconclusive: 18.4 µM [inhibitor, single point] |  |
| COc1ccc2ccccc2c1CNC(=O)CC1C(=O)NCCN1CC(C)C (stereo not given) | inconclusive: 23.1 µM [inhibitor, single point] |  |
| CN(C(=O)COC(=O)C1=COCCO1)c1c(N)n(Cc2ccccc2)c(=O)[nH]c1=O | inactive |  |
| CCOC(=O)N1CCC(N2Cc3cccc(C(=O)N4CCN(c5cccc(C)c5C)CC4)c3C2=O)CC1 | inconclusive: 23.1 µM [inhibitor, single point] |  |
| CC[C@@H](C)[C@@H](C(=O)N1CCNCC1)n1cc(CCC(=O)O)nn1 | inactive |  |
| COc1ccc(-c2ccc(C(=O)NCc3ccc(C(F)(F)F)cc3)c3occc23)c(C)c1 | active: 16.4 µM |  |
| NS(=O)(=O)c1ccc(N/N=C/c2cn(-c3ccccc3)nc2-c2ccccc2)c([N+](=O)[O-])c1 | active: 11.6 µM |  |
| CSc1ccc(CN(C)C(=O)CNC(=O)CNS(=O)(=O)c2ccc(C)c(C)c2)cc1 | inconclusive: 16.4 µM [inhibitor, single point] |  |
| CCCNC(=O)CSc1nnc(-c2ccccc2Br)n1-c1cccc(C(F)(F)F)c1 | inconclusive: 18.4 µM [inhibitor, single point] |  |
| Cc1ccc(NC(=O)COC(=O)c2ccc(-n3nc(C)cc3C)cc2)c(F)c1 | inactive |  |
| Cc1ccc(C(=O)CNc2ccc(C)c(Cl)c2)cc1 | inactive |  |

| Compound | Potency | activity change, negative = growth inhibition |
| --- | --- | --- |
| CCN(CC)c1ccc(NC(=O)CCCCCN2C(=O)c3ccccc3C2=O)cc1 | inconclusive: 18.4 µM [inhibitor, partial curve] |  |
| Cc1ccc(-n2ncc3c(NCc4cccnc4)ncnc32)cc1C | inconclusive: 29.1 µM [inhibitor, single point] |  |
| COc1ccc(-c2csc(NC(=O)C3COc4ccccc4O3)n2)cc1OC (stereo not given) | active: 13 µM |  |
| CC(NC(=O)C(Cc1ccccc1)n1cccc1)c1ccccc1 (stereo not given) | inconclusive: 8.2 µM [inhibitor, partial curve] |  |
| Nc1nnc(/C=C/c2cccc([N+](=O)[O-])c2)s1 | inconclusive: 7.31 µM [inhibitor, single point] |  |
| C#CCN1C=CC(=O)[C@@H](OC(=O)Nc2ccc(C)cc2)[C@H]1c1ccccc1Br | inconclusive: 29.1 µM [inhibitor, single point] |  |
| COC(=O)N/N=C/c1cn(CC(C)COc2ccccc2)c2ccccc12 (stereo not given) | active: 23.1 µM |  |
| CCC(C)Cn1c(O)cc2nn(-c3nc4ccccc4s3)c(=O)c-2c1C (stereo not given) | active: 18.4 µM |  |
| CCc1cccc(C)c1NS(=O)(=O)c1c(C)nc2sccn2c1=O | inactive and inconclusive: 16.4 µM [inhibitor, single point] |  |
| CC(C)(C)S(=O)(=O)c1cnc2c(-c3ccc(Cl)cc3)cnn2c1N | inconclusive: 13 µM [inhibitor, partial curve, poor fit] |  |
| Cc1c(NC(=O)CCSCCc2ccccn2)cccc1[N+](=O)[O-] |  | inconclusive: -35.3% [inhibitor] |
| COc1ccc(CCNC(=O)C2CCN(C(=O)c3cccc(Cl)c3)CC2)cc1OC | inconclusive: 23.1 µM [inhibitor, single point] |  |
| COc1ccccc1N1CCN(C(=O)Cn2c(=O)oc3cc(S(=O)(=O)N4CCCC4)ccc32)CC1 | inconclusive: 29.1 µM [inhibitor, single point] |  |
| C=CC1=C(C)C2=Cc3c(C=C)c(C)c4[n]3[Sn+2][n]3c(c(C)c(CCC(=O)O)c3=CC3=NC(=C4)C(C)=C3CCC(=O)O)=CC1=N2 | inactive |  |
| CCOC(=O)c1c(-c2ccccc2)csc1NC(=O)c1cc(-c2ccc(C)c(F)c2)on1 | inactive |  |
| O=C(OCc1ccccc1)N1CCC2CC1c1cc(N3CCN(C(=S)NCCc4ccccc4)CC3)ccc12 (stereo not given) | inconclusive: 23.1 µM [inhibitor, single point] |  |
| CC(C)OCCCNC(=S)NNC(=O)C(c1ccccc1)c1ccccc1 | inconclusive: 23.1 µM [inhibitor, single point] |  |
| O=C(Cn1ccc2cc(S(=O)(=O)N3CCCCCC3)ccc21)NCCc1ccc(Cl)cc1 | active: 18.4 µM |  |
| CN(C)S(=O)(=O)c1ccc(C(=O)NCC(=O)N/N=C/c2ccccc2Cl)cc1 | inconclusive: 18.4 µM [inhibitor, single point] |  |
| C/C(=N\NC(=O)c1ccccc1O)c1c(O)cc(C)oc1=O | inconclusive: 18.4 µM [inhibitor, single point] |  |
| Cc1ccc(S(=O)(=O)N(Cc2ccc(Cl)cc2)c2ccccc2C(=O)O)cc1 | inactive |  |
| CC[C@]1(C(=O)OC)[C@H]2C(=O)N(C)C(=O)[C@H]2[C@H]2CN(C)C(=NC3CCCCC3)N21 | inactive |  |
| CCOc1ccc(CCN2C(=O)C3C4CCC(O4)C3C2=O)cc1OCC (stereo not given) | inactive |  |
| Cc1cc(OCC(=O)Nc2nccs2)c2c(C)cc(=O)oc2c1 | inconclusive: 1.84 µM [inhibitor, partial curve] |  |

| Compound | Potency | activity change, negative = growth inhibition |
| --- | --- | --- |
| CCOc1ccc(NC(=O)CN(C)c2nnnn2-c2ccccc2)cc1OCC | inactive |  |
| CC(=O)N/C(=C/c1ccc(Cl)cc1)C(=O)NCCc1c[nH]c2ccccc12 | inactive |  |
| O=C(NNC(=S)NC(=O)c1ccc(F)cc1)c1cccnc1 | active: 18.4 µM |  |
| COc1ccc(-c2c(-c3ccsc3)oc3ccc(N4CCOCC4)cc23)cn1 | active: 16.4 µM |  |
| COc1ccc(N2CCc3c(C)nc4c(OC)cc(OC)cc4c32)cc1 | active: 14.6 µM |  |
| Clc1ccc(CN2CCN(c3ncccn3)CC2)c(Cl)c1 | inactive |  |
| CN1CCN(CCNC(=O)Nc2ccc(Cl)cc2)CC1 | inactive |  |
| Cc1ccc(Cl)cc1N1CCN(C(=O)CCCCCn2c(=O)[nH]c3ccccc3c2=O)CC1 | active: 0.651 µM |  |
| COc1ccccc1N1CCN(Cc2ccc(OC)c3ccccc23)CC1 | inconclusive: 23.1 µM [inhibitor, partial curve] |  |
| C[C@H](NC(=O)C1CCN(S(=O)(=O)c2ccccc2)CC1)C(=O)NCc1cccnc1 | inactive |  |
| CCc1ccc(NC(=O)C2CCCN(S(=O)(=O)c3c(C)noc3/C=C/N(C)C)C2)cc1 (stereo not given) | inconclusive: 29.1 µM [inhibitor, single point] |  |
| Cc1cccc(NS(=O)(=O)c2ccc(OCC(=O)N3CCCC3)cc2)c1 | inactive |  |
| CC(=O)N(C)C(c1ccc(N(C)C)cc1)c1nnnn1-c1c(C)cccc1C (stereo not given) | inactive |  |
| COc1ccc(NC(=O)Nc2ccccc2SC)cc1OC | inconclusive: 18.4 µM [inhibitor, single point] |  |
| O=C(NCc1ccccn1)c1ccc(Cl)c(S(=O)(=O)N2CCCCC2)c1 | inconclusive: 18.4 µM [inhibitor, single point] |  |
| CN1CCN(c2ncnc3c2ncn3[C@H]2CN(Cc3ccccc3)C[C@@H](CO)O2)CC1 | inactive |  |
| CCN1CCN(C(=O)c2ccc3c(c2)N(Cc2ccccc2F)C(=O)c2ccccc2S3=O)CC1 (stereo not given) | inconclusive: 16.4 µM [inhibitor, partial curve, poor fit] |  |
| COc1ccc(C(=O)Nc2ccc(Oc3nc(C)nc4sc(-c5ccccc5)cc34)cc2)cc1OC | inconclusive: 11.6 µM [inhibitor, partial curve] |  |
| C=C1C=C(C)n2ncc(C(=O)Nc3ccc(C)cn3)c2N1 | inconclusive: 35.5 µM [inhibitor, single point] |  |
| CC(=O)Nc1cccc(NC(=O)CSc2nc(=O)n(Cc3ccccn3)c3c2CCC3)c1 | inactive |  |
| Cc1ccc(C(C)C)c(OCC(=O)NCC(c2cccs2)N2CCOCC2)c1 (stereo not given) | active: 13 µM |  |
| COc1ccc(Cl)cc1NC(=O)C1CC(c2ccccc2O)=NO1 (stereo not given) | inactive |  |
